The record followed here is publication PMC10636204.

The target in assay [1] is mouse TMEM63C (purified, GFP tag removed) (mouse) (UniProt Q8CBX0). Kind of assay: cryo-EM structure; purified TMEM63C in LMNG/CHS, 50 mM Tris pH 7.0, 150 mM NaCl, 1 mg/ml; single-particle cryo-EM, 2D averages and 3.56 Å map; both purified.
Assay [2] deals with TMEM63C-FLAG (expressed alone, cross-linked in the membrane) (mouse) (UniProt Q8CBX0). As to the kind of experiment: cross-linking; TMEM63C-FLAG in isolated HEK293S membranes, not extracted; 0.02% glutaraldehyde, 4 °C, 30 min, stopped with 50 mM Tris 7.0; SDS-PAGE and western blot. For orientation: In western blotting, separated proteins are transferred to a membrane and probed.

Assay [3] has as its target TMEM63C-GFP and TMEM63C-FLAG co-expressed (two differently tagged copies of mouse TMEM63C) (mouse) (UniProt Q8CBX0). As to the kind of experiment: co-IP; as the co-IP without cross-linking, but cell membrane purified and cross-linked with glutaraldehyde before extraction with DDM; GFP and FLAG beads, western blot.
Assay [4] shares this target. Kind of assay: co-IP; TMEM63C-GFP and TMEM63C-FLAG co-expressed in HEK293S; extracted with 1% DDM, 0.1% CHS, 20 mM Hepes pH 7.0, 150 mM NaCl, 10% glycerol; GFP resin and Flag resin, 4 °C overnight; western blot with anti-GFP and anti-Flag; no cross-linking.
In assay [5] the target is T1, TMEM63B with GFP tag and TMEM63B with FLAG tag co-expressed (two differently tagged copies of mouse TMEM63B) (mouse), Q3TWI9.
T1 chain: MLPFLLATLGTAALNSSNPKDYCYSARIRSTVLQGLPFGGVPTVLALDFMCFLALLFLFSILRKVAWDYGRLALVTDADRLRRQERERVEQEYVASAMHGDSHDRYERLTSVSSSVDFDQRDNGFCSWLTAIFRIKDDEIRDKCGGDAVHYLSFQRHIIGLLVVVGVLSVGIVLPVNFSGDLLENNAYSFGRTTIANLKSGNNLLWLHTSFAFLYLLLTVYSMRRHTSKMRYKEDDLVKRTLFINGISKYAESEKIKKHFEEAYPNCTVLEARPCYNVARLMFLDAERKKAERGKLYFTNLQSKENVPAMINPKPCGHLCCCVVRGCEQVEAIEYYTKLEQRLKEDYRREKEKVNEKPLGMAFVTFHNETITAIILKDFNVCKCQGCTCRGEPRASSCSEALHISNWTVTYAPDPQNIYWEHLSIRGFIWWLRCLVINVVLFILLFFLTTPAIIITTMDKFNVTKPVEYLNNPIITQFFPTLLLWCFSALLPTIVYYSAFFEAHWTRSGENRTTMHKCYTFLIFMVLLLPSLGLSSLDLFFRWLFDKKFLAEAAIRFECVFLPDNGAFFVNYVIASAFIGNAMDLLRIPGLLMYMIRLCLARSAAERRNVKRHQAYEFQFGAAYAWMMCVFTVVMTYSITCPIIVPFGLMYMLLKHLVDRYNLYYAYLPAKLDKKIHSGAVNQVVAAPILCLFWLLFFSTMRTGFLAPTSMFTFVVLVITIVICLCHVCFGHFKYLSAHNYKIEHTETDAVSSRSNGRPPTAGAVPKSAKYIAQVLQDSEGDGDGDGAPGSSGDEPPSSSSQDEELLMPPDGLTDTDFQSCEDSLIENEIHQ
Kind of assay: co-IP; TMEM63B, same protocol as for TMEM63C (GFP resin and Flag resin, DDM/CHS extract of HEK293S cells, western blot), lysis buffer pH 8.0; no cross-linking. To be noted: remark: other sources report otherwise.

Results are given in words; binding and its absence hold for the method and conditions named. For some assays here: Binding seen in cells or lysates may run through a third protein. Some entries that bind do so weakly or less than the wild type. Tags and fused reporters may be left off the sequences shown.

B1: mouse TMEM63C (purified, GFP tag removed) (protein, UniProt Q8CBX0 1-802)
chain: MSAFPDSMDQKFHNMTVNECFQSRSTVLQGQPFGGIPTVLVLNIILWVFVVLLYSFLRKAAWDYGRLALLIHNDSLTSLIYGEQSEKSSPSEVSLEAERRDRGFSSWFFNSLTMRDRDLINKCGDDARIYITFQYHLIIFVLILCIPSLGIILPVNYIGTVLDWNSHFGRTTIVNVSTESKFLWLHSLFAFLYFLINLAFMGHHCLGFVPKKSLHFTRTLMITYVPTEIQDPEIISKHFHEAYPGCVVTRVHFCYDVRNLIDLDDQRRHAMRGRLYYTAKAKKTGKVMIKTHPCSRLCFCKCWTCFKEVDAEQYYSELEEQLTDEFNAELNRVQLKRLDLIFVTFQDARTVRRIYDDYKYIHCGRHPKQSSVTTIVKNYHWRVAHAPHPKDIIWKHLSIRRFSWWTRFIAINTFLFFLFFFLTTPAIIINTIDIYNVTRPIEKLQSPIVTQFFPSVLLWAFTVTMPLLVYLSAFLEAHWTRSSQNLIIVHKCYIFLVFMVVILPSMGLTSLHVFLRWLFDIYYLEHATIRFQCVFLPDNGAFFINYVITAALLGTGMELMRLGSLCTYCTRLFLSKSEPERVHIRKNQATDFQFGREYAWMLNVFSVVMAYSITCPIIVPFGLLYLCMKHITDRYNMYYSYAPTKLNAQIHMAAVYQAIFAPLLGLFWMLFFSILRVGSLHSITLFSMSSLIISVVIAFSGVFLGKLRIAQRYEQPEEETETVFDVEPSSTTSTPTSLLYVATVLQEPELNLTPASSPARHTYGTINSQPEEGEEESGLRGFARELDSAQFQEGLEMEGQSH
As for B1, the binding result in assay [1] was “no binding”.

B2: TMEM63C-FLAG (expressed alone, cross-linked in the membrane) (protein, UniProt Q8CBX0 1-802)
chain: MSAFPDSMDQKFHNMTVNECFQSRSTVLQGQPFGGIPTVLVLNIILWVFVVLLYSFLRKAAWDYGRLALLIHNDSLTSLIYGEQSEKSSPSEVSLEAERRDRGFSSWFFNSLTMRDRDLINKCGDDARIYITFQYHLIIFVLILCIPSLGIILPVNYIGTVLDWNSHFGRTTIVNVSTESKFLWLHSLFAFLYFLINLAFMGHHCLGFVPKKSLHFTRTLMITYVPTEIQDPEIISKHFHEAYPGCVVTRVHFCYDVRNLIDLDDQRRHAMRGRLYYTAKAKKTGKVMIKTHPCSRLCFCKCWTCFKEVDAEQYYSELEEQLTDEFNAELNRVQLKRLDLIFVTFQDARTVRRIYDDYKYIHCGRHPKQSSVTTIVKNYHWRVAHAPHPKDIIWKHLSIRRFSWWTRFIAINTFLFFLFFFLTTPAIIINTIDIYNVTRPIEKLQSPIVTQFFPSVLLWAFTVTMPLLVYLSAFLEAHWTRSSQNLIIVHKCYIFLVFMVVILPSMGLTSLHVFLRWLFDIYYLEHATIRFQCVFLPDNGAFFINYVITAALLGTGMELMRLGSLCTYCTRLFLSKSEPERVHIRKNQATDFQFGREYAWMLNVFSVVMAYSITCPIIVPFGLLYLCMKHITDRYNMYYSYAPTKLNAQIHMAAVYQAIFAPLLGLFWMLFFSILRVGSLHSITLFSMSSLIISVVIAFSGVFLGKLRIAQRYEQPEEETETVFDVEPSSTTSTPTSLLYVATVLQEPELNLTPASSPARHTYGTINSQPEEGEEESGLRGFARELDSAQFQEGLEMEGQSH
Regarding B2, the binding result in assay [2] is given as “no binding”.

B3: TMEM63C-GFP and TMEM63C-FLAG co-expressed (two differently tagged copies of mouse TMEM63C) (protein, UniProt Q8CBX0 1-802)
chain: MSAFPDSMDQKFHNMTVNECFQSRSTVLQGQPFGGIPTVLVLNIILWVFVVLLYSFLRKAAWDYGRLALLIHNDSLTSLIYGEQSEKSSPSEVSLEAERRDRGFSSWFFNSLTMRDRDLINKCGDDARIYITFQYHLIIFVLILCIPSLGIILPVNYIGTVLDWNSHFGRTTIVNVSTESKFLWLHSLFAFLYFLINLAFMGHHCLGFVPKKSLHFTRTLMITYVPTEIQDPEIISKHFHEAYPGCVVTRVHFCYDVRNLIDLDDQRRHAMRGRLYYTAKAKKTGKVMIKTHPCSRLCFCKCWTCFKEVDAEQYYSELEEQLTDEFNAELNRVQLKRLDLIFVTFQDARTVRRIYDDYKYIHCGRHPKQSSVTTIVKNYHWRVAHAPHPKDIIWKHLSIRRFSWWTRFIAINTFLFFLFFFLTTPAIIINTIDIYNVTRPIEKLQSPIVTQFFPSVLLWAFTVTMPLLVYLSAFLEAHWTRSSQNLIIVHKCYIFLVFMVVILPSMGLTSLHVFLRWLFDIYYLEHATIRFQCVFLPDNGAFFINYVITAALLGTGMELMRLGSLCTYCTRLFLSKSEPERVHIRKNQATDFQFGREYAWMLNVFSVVMAYSITCPIIVPFGLLYLCMKHITDRYNMYYSYAPTKLNAQIHMAAVYQAIFAPLLGLFWMLFFSILRVGSLHSITLFSMSSLIISVVIAFSGVFLGKLRIAQRYEQPEEETETVFDVEPSSTTSTPTSLLYVATVLQEPELNLTPASSPARHTYGTINSQPEEGEEESGLRGFARELDSAQFQEGLEMEGQSH
Consider B3, for which the binding result in assay [3] and in assay [4] was “no binding” each time.

B4: TMEM63B with GFP tag and TMEM63B with FLAG tag co-expressed (two differently tagged copies of mouse TMEM63B), Q3TWI9 1-832 (protein)
chain: MLPFLLATLGTAALNSSNPKDYCYSARIRSTVLQGLPFGGVPTVLALDFMCFLALLFLFSILRKVAWDYGRLALVTDADRLRRQERERVEQEYVASAMHGDSHDRYERLTSVSSSVDFDQRDNGFCSWLTAIFRIKDDEIRDKCGGDAVHYLSFQRHIIGLLVVVGVLSVGIVLPVNFSGDLLENNAYSFGRTTIANLKSGNNLLWLHTSFAFLYLLLTVYSMRRHTSKMRYKEDDLVKRTLFINGISKYAESEKIKKHFEEAYPNCTVLEARPCYNVARLMFLDAERKKAERGKLYFTNLQSKENVPAMINPKPCGHLCCCVVRGCEQVEAIEYYTKLEQRLKEDYRREKEKVNEKPLGMAFVTFHNETITAIILKDFNVCKCQGCTCRGEPRASSCSEALHISNWTVTYAPDPQNIYWEHLSIRGFIWWLRCLVINVVLFILLFFLTTPAIIITTMDKFNVTKPVEYLNNPIITQFFPTLLLWCFSALLPTIVYYSAFFEAHWTRSGENRTTMHKCYTFLIFMVLLLPSLGLSSLDLFFRWLFDKKFLAEAAIRFECVFLPDNGAFFVNYVIASAFIGNAMDLLRIPGLLMYMIRLCLARSAAERRNVKRHQAYEFQFGAAYAWMMCVFTVVMTYSITCPIIVPFGLMYMLLKHLVDRYNLYYAYLPAKLDKKIHSGAVNQVVAAPILCLFWLLFFSTMRTGFLAPTSMFTFVVLVITIVICLCHVCFGHFKYLSAHNYKIEHTETDAVSSRSNGRPPTAGAVPKSAKYIAQVLQDSEGDGDGDGAPGSSGDEPPSSSSQDEELLMPPDGLTDTDFQSCEDSLIENEIHQ
Take B4: the binding result in assay [5] is given as “binds”.
